Data published in PubChem BioAssay (Tox21).
“And” between values parts separate entries of the source, which are not always exact repeats. Identical values can stand only once. The inconclusive results got no clear call from the source; some entries with a clear call stand among them for comparison. For some of these results: A potency beside an inconclusive call is a rough fit, not a confirmed value. More than one record can exist for a structure, and the calls need not agree. The source made the active and inactive calls. Unless noted, the call rests on the fitted dose curve; in most records, active means well fitted curve in the direction sought with a large enough effect in the repeat runs; inconclusive means weak or mixed curves; inactive means no such curve, though single readings can be large; an effect the other way counts as inactive or inconclusive.

Experiments:
[1] = qHTS assay to identify small molecule that activate the aryl hydrocarbon receptor (AhR) signaling pathway - cell viability counter screen (AID 743086); further: potency means the concentration at half of the fitted maximal effect; nearly all actives have a fitted effect of over 45% in size
Procedure, shortened: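 HepG2-AhR-luc (HG2L7.5c1) cells, 4000/well, treated 24 h at 37 C with compound; viability measured as CellTiter-Fluor fluorescence after 30 min in the same wells as the luciferase read.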

[2] = target: Peroxisome proliferator-activated receptor gamma (Homo sapiens) (UniProt P37231); experiment: qHTS assay to identify small molecule agonists of the peroxisome proliferator-activated receptor gamma (PPARg) signaling pathway (AID 743094; active means well fitted activation curve with a large enough effect in the signal ratio in the repeat runs, not every such curve was filed as active; inconclusive means weak or mixed curves, or effect the other way; inactive means no such curve, though single readings can be large or run the other way; the % refers to the signal ratio; further: potency means the concentration at half of the fitted maximal effect; on activation: on the % scale 0 is the no-effect control and ±100 the full control effect); settings: HEK293H PPARg-UAS-bla, beta-lactamase FRET ratio, 17 h; activation: at 57 µM (top of the series) unless noted
Procedure, shortened: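 Reporter activation was scored by fluorescence of cleaved LiveBLAzer B/G substrate (1 h, room temperature) in PPARg-bla HEK293H cells previously treated 17 h at 37C with DMSO-dissolved compounds.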

[3] = target: Peroxisome proliferator-activated receptor gamma (Homo sapiens) (UniProt P37231); experiment: qHTS assay to identify small molecule antagonists of the peroxisome proliferator-activated receptor gamma (PPARg) signaling pathway (AID 743191; calls by dose curve; further: nearly all actives have a fitted effect of over 30% in size; further: potency means the concentration at half of the fitted maximal effect; on ratio activity, negative = inhibition: on the % scale 0 is the no-effect control and ±100 the full control effect); settings: HEK293H PPARg-UAS-bla, beta-lactamase ratio, antagonist, 17 h; ratio activity, negative = inhibition: at 62.6 µM (top of the series) unless noted
Procedure, shortened: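 GeneBLAzer PPARg UAS-bla HEK293H cells, 5 h post-plating, exposed to compounds 17 h at 37C. LiveBLAzer B/G FRET substrate added for 1 h at room temperature; beta-lactamase reporter read by fluorescence intensity.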

[4] = qHTS assay for small molecule activators of the heat shock response signaling pathway (AID 743210; active means well fitted activation curve with a large enough effect in the signal ratio in the repeat runs, with a control signal flat, not every such curve was filed as active; inconclusive means weak or mixed curves; the % refers to the signal ratio; further: potency means the concentration at half of the fitted maximal effect); settings: HeLa HSE-bla reporter, beta-lactamase ratio, 5 h; activation: at 62.6 µM (top of the series)
Procedure, shortened: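 Beta-lactamase reporter read-out: FRET substrate fluorescence after 2.5 h at RT, following 5 h compound treatment at 37 C of HeLa cells carrying HSE-driven bla reporter; quantitative HTS format.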

[5] = target: Peroxisome proliferator-activated receptor delta (Homo sapiens) (UniProt Q03181); experiment: qHTS assay to identify small molecule agonists of the peroxisome proliferator-activated receptor delta (PPARd) signaling pathway (AID 743212; calls by dose curve; further: potency means the concentration at half of the fitted maximal effect; on activation: on the % scale 0 is the no-effect control and ±100 the full control effect); settings: HEK293H PPARd-UAS-bla, beta-lactamase FRET ratio, 17 h; activation: at 62.6 µM (top of the series) unless noted
Procedure, shortened: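 Read-out: beta-lactamase FRET fluorescence after 2 h room-temperature incubation with LiveBLAzer B/G substrate. Cells were HEK293H carrying a UAS-bla reporter for PPARd, treated at 37 C with DMSO-dissolved compounds.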

[6] = target: Peroxisome proliferator-activated receptor delta (Homo sapiens) (UniProt Q03181); experiment: qHTS assay to identify small molecule antagonists of the peroxisome proliferator-activated receptor delta (PPARd) signaling pathway (AID 743215; active means well fitted inhibition curve with a large enough effect in the signal ratio in the repeat runs, not every such curve was filed as active; inconclusive means weak or mixed curves, or effect the other way; inactive means no such curve, though single readings can be large or run the other way; the % refers to the signal ratio; further: potency means the concentration at half of the fitted maximal effect); settings: HEK293H PPARd-UAS-bla, beta-lactamase FRET ratio, antagonist, 17 h; ratio activity, negative = inhibition: at 62 µM (top of the series) unless noted
Procedure, shortened: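 Plated HEK293H PPARd-bla cells rested 5 h at 37 C and 5% CO2. Compound, then agonist L165041 at 300 nM final, was added; 17 h at 37 C followed. Substrate loading, 2 h room temperature, fluorescence measured.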

[7] = target: Bile acid receptor (Homo sapiens) (UniProt Q96RI1); experiment: qHTS assay to identify small molecule antagonists of the farnesoid-X-receptor (FXR) signaling pathway (AID 743217; active means well fitted inhibition curve with a large enough effect in the signal ratio in the repeat runs, not every such curve was filed as active; inconclusive means weak or mixed curves, or effect the other way; inactive means no such curve, though single readings can be large or run the other way; the % refers to the signal ratio; further: potency means the concentration at half of the fitted maximal effect); settings: HEK293T FXR-UAS-bla, beta-lactamase ratio, CDCA-stimulated, 16 h; activity change, negative = inhibition: at 62.6 µM (top of the series) unless noted
Procedure, shortened: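 Screen of the Tox21 10K library in quantitative HTS format using FXR-UAS-bla HEK 293T reporter cells. Agonist chenodeoxycholic acid, 50 uM final, added with compounds; 16 h incubation at 37 °C; beta-lactamase FRET fluorescence measured.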

[8] = target: Bile acid receptor (Homo sapiens) (UniProt Q96RI1); experiment: qHTS assay to identify small molecule agonists of the farnesoid-X-receptor (FXR) signaling pathway (AID 743220; active means well fitted activation curve with a large enough effect in the signal ratio in the repeat runs, not every such curve was filed as active; inconclusive means weak or mixed curves, or effect the other way; the % refers to the signal ratio; further: potency means the concentration at half of the fitted maximal effect); settings: HEK293T FXR-UAS-bla, beta-lactamase FRET ratio, 16 h; activation: at 62.6 µM (top of the series) unless noted
Procedure, shortened: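 FXR-UAS-bla HEK 293T cells carrying a UAS-driven beta-lactamase reporter were plated for 5 h at 37C/5% CO2, then exposed to DMSO-dissolved Tox21 10K compounds for 16 h at 37C. A LiveBLAzer B/G FRET substrate was loaded for 2 h at room temperature before fluorescence reading.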

[9] = qHTS assay to identify small molecule antagonists of the farnesoid-X-receptor (FXR) signaling pathway - cell viability counter screen (AID 743221; active means well fitted cell-killing curve with a large enough effect in the repeat runs, not every such curve was filed as active; inconclusive means weak or mixed curves, or effect the other way; inactive means no such curve, though single readings can be large or run the other way; further: potency means the concentration at half of the fitted maximal effect; nearly all actives have a fitted effect of over 50% in size); settings: FXR-bla HEK293T viability, CellTiter-Glo luminescence, 16 h; activity change, negative = cytotoxicity: at 62.6 µM (top of the series)
Procedure, shortened: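 Quantitative HTS of the Tox21 10K library run in parallel with the beta-lactamase reporter read. HEK 293T cells carrying a UAS-driven bla reporter got compound and 50 uM CDCA (final) for 16 h; ATP-based luminescence followed.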

[10] = target: Vitamin D3 receptor (Homo sapiens) (UniProt P11473); experiment: qHTS assay to identify small molecule antagonists of the vitamin D receptor (VDR) signaling pathway (AID 743223; active means well fitted inhibition curve with a large enough effect in the signal ratio in the repeat runs, not every such curve was filed as active; inconclusive means weak or mixed curves, or effect the other way; inactive means no such curve, though single readings can be large or run the other way; the % refers to the signal ratio; further: potency means the concentration at half of the fitted maximal effect); settings: VDR-UAS-bla HEK293T, beta-lactamase FRET ratio, 16 h; activity change, negative = inhibition: at 61 µM (top of the series) unless noted
Procedure, shortened: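 Fluorescence from LiveBLAzer B/G FRET substrate, read after 2 h at room temperature, reflects beta-lactamase reporter activity in VDR-bla cells treated 16 h at 37C with compounds and agonist 1alpha,25-dihydroxyvitamin D3 (3 nM final).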

[11] = qHTS assay to identify small molecule antagonists of the vitamin D receptor (VDR) signaling pathway - cell viability counter screen (AID 743225); settings: VDR-bla HEK293T viability, CellTiter-Glo luminescence, 16 h; viability change, negative = cytotoxic: at 61 µM (top of the series) unless noted; further: potency means the concentration at half of the fitted maximal effect; nearly all actives have a fitted effect of over 50% in size
Procedure, shortened: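 Cells (VDR-UAS-bla HEK 293T) are plated, rested 4 h at 37C, dosed with compound and 3 nM final 1-alpha,25-dihydroxy vitamin D3, and incubated 16 h. Viability is taken from CellTiter-Glo luminescence in the reporter wells.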

[12] = qHTS assay for small molecule agonists of the antioxidant response element (ARE) signaling pathway - cell viability counter screen (AID 743203; calls by dose curve; further: potency means the concentration at half of the fitted maximal effect; nearly all actives have a fitted effect of over 55% in size); settings: ARE-bla HepG2 viability, CellTiter-Glo luminescence, 16 h; viability change, negative = cytotoxic: at 73.3 µM (top of the series)
Procedure, shortened: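 Viability counter screen: stably transfected ARE-bla HepG2 line, 16 hrs compound exposure at 37C/5% CO2, ATP-based CellTiter-Glo luminescence measured in the reporter wells.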

[13] = qHTS assay for small molecule activators of the heat shock response signaling pathway - cell viability counter screen (AID 743209); settings: HSE-bla HeLa viability, CellTiter-Glo luminescence, 5 h; activity change, negative = cytotoxicity: at 62.6 µM (top of the series) unless noted; further: nearly all actives have a fitted effect of over 50% in size; further: potency means the concentration at half of the fitted maximal effect
Procedure, shortened: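 Viability of HSE-bla HeLa cells is measured with CellTiter-Glo in the wells already used for the reporter read. Compound exposure lasts 5 h at 37 C, and luminescence is read after 30 min at room temperature.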

[14] = qHTS assay to identify small molecule antagonists of the peroxisome proliferator-activated receptor delta (PPARd) signaling pathway - cell viability counter screen (AID 743213); settings: PPARd-bla HEK293H viability, CellTiter-Glo luminescence, 17 h; viability change, negative = cytotoxic: at 62 µM (top of the series) unless noted; further: potency means the concentration at half of the fitted maximal effect; nearly all actives have a fitted effect of over 50% in size
Procedure, shortened: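 Agonist-stimulated (L165041, 300 nM final) HEK293H PPARd UAS-bla cells are exposed to compounds for 17 h at 37 C, and ATP-based luminescence (CellTiter-Glo) from the same wells reports cytotoxicity.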

[15] = qHTS assay to identify small molecule agonists of the farnesoid-X-receptor (FXR) signaling pathway - cell viability counter screen (AID 743218); settings: FXR-bla HEK293T viability, CellTiter-Glo luminescence, 16 h; viability change, negative = cytotoxic: at 62.6 µM (top of the series) unless noted; further: nearly all actives have a fitted effect of over 45% in size; further: potency means the concentration at half of the fitted maximal effect; on viability change, negative = cytotoxic: on the % scale 0 is the no-effect control and ±100 the full control effect
Procedure, shortened: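 Viability of FXR-bla HEK 293T cells is measured by ATP-based CellTiter-Glo luminescence following 16 h compound treatment at 37 C and a prior 2 h room-temperature beta-lactamase substrate step.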

[16] = target: Vitamin D3 receptor (Homo sapiens) (UniProt P11473); experiment: qHTS assay to identify small molecule agonists of the vitamin D receptor (VDR) signaling pathway (AID 743222; calls by dose curve; further: potency means the concentration at half of the fitted maximal effect); settings: HEK293T VDR-UAS-bla, beta-lactamase FRET ratio, 16 h; activation: at 63.5 µM (top of the series) unless noted
Procedure, shortened: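 Fluorescence from cleaved LiveBLAzer B/G FRET substrate served as readout. VDR-bla cells had been treated 16 h at 37C with test compounds in DMSO, following a 4 h settling period, and substrate was loaded for 2 h at RT.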

[17] = qHTS assay for small molecule agonists of the antioxidant response element (ARE) signaling pathway (AID 743202; active means well fitted activation curve with a large enough effect in the signal ratio in the repeat runs, not every such curve was filed as active; inconclusive means weak or mixed curves, or effect the other way; inactive means no such curve, though single readings can be large or run the other way; the % refers to the signal ratio; further: potency means the concentration at half of the fitted maximal effect); settings: HepG2 ARE-bla reporter, beta-lactamase FRET, 16 h; activation: at 73.3 µM (top of the series) unless noted
Procedure, shortened: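 HepG2 ARE-bla reporter line, 2,000 cells/well; 5 h preincubation 37 C/5% CO2; compound (DMSO) 16 h 37 C; B/G FRET substrate 2 h RT; fluorescence intensity.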

[18] = qHTS assay to identify small molecule agonists of the peroxisome proliferator-activated receptor delta (PPARd) signaling pathway - cell viability counter screen (AID 743211); settings: PPARd-bla HEK293H viability, CellTiter-Glo luminescence, 17 h; activity change, negative = cytotoxicity: at 62.6 µM (top of the series); further: potency means the concentration at half of the fitted maximal effect; nearly all actives have a fitted effect of over 55% in size
Procedure, shortened: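 Viability of GeneBLAzer PPARd UAS-bla HEK293H cells was assessed after 17 h compound incubation at 37C, using CellTiter-Glo reagent added after the reporter read and luminescence recorded 30 min later.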

[19] = qHTS assay to identify small molecule agonists of the vitamin D receptor (VDR) signaling pathway - cell viability counter screen (AID 743224); settings: VDR-bla HEK293T viability, CellTiter-Glo luminescence, 16 h; activity change, negative = cytotoxicity: at 62.6 µM (top of the series) unless noted
Procedure, shortened: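 Compounds were pin-transferred onto VDR-bla cells plated 4 h earlier; following 16 h incubation at 37C, cell viability was quantified by CellTiter-Glo luminescence after 30 min at room temperature.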

[20] = qHTS assay to identify small molecule antagonists of the peroxisome proliferator-activated receptor gamma (PPARg) signaling pathway - cell viability counter screen (AID 743194); settings: PPARg-bla HEK293H viability, CellTiter-Glo luminescence, 17 h, co-treated with 50 nM rosiglitazone; activity change, negative = cytotoxicity: at 62.6 µM (top of the series) unless noted; further: on the % scale 0 is the no-effect control and ±100 the full control effect; nearly all actives have a fitted effect of over 55% in size
Procedure, shortened: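 Cytotoxicity counter screen in PPARg-bla HEK293H cells, same wells as reporter assay. Compounds plus 50 nM rosiglitazone (final) for 17 h at 37 C, then viability read by CellTiter-Glo luminescence.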
Tags describe the fitted curve by direction and shape or compound fluorescence and quenching.

Sequence of UniProt P37231 (P37231 whole entry, looked up): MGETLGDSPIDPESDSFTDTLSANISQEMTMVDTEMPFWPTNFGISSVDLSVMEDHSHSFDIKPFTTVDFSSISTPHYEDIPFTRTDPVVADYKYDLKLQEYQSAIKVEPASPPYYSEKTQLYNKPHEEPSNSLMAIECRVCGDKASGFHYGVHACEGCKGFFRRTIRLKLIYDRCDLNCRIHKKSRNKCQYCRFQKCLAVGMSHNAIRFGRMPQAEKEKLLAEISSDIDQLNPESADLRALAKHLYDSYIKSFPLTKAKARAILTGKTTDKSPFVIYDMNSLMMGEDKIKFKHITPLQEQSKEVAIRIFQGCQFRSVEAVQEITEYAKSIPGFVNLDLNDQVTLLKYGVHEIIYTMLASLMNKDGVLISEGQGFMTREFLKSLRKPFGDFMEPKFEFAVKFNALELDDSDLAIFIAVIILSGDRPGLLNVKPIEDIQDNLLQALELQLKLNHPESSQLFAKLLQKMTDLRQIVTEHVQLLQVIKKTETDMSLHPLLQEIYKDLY
Sequence of UniProt Q96RI1 (Q96RI1 whole entry, looked up): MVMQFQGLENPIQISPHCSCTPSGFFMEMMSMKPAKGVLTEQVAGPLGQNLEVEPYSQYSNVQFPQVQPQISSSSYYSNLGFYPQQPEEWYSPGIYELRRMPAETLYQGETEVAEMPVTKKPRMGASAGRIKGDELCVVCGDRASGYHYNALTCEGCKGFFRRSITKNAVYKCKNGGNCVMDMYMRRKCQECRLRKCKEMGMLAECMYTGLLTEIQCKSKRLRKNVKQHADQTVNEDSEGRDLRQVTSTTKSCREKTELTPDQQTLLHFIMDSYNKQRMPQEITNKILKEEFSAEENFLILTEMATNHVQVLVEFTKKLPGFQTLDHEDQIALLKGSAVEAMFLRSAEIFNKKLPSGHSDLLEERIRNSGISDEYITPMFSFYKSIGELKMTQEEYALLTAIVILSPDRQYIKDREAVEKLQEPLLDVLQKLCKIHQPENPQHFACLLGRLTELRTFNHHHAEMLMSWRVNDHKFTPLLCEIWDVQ
Sequence of UniProt Q03181 (Q03181 whole entry, looked up): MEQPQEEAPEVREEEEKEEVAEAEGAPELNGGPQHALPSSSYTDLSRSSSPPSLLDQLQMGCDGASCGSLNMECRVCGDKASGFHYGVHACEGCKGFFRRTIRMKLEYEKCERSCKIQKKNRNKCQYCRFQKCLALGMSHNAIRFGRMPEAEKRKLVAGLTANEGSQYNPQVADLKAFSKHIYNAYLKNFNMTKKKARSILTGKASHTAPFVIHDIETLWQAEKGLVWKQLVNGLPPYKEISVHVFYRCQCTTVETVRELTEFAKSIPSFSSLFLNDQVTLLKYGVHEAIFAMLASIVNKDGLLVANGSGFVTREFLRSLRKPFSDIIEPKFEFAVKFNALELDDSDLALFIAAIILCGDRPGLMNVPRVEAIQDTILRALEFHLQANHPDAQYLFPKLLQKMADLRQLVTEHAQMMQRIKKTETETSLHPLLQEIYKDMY
Sequence of UniProt P11473 (P11473 whole entry, looked up): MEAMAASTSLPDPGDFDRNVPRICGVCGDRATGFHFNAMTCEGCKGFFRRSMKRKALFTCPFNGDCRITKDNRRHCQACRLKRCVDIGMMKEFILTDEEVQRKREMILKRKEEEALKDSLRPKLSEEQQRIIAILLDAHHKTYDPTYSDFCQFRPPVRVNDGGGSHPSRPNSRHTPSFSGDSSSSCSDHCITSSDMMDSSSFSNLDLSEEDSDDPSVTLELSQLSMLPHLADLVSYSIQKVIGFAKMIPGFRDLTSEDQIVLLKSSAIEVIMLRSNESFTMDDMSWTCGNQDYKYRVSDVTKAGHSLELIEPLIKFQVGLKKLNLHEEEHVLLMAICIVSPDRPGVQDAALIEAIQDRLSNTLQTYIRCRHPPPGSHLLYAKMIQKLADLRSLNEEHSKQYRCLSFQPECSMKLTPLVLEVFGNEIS

CCN(CC)c1ccc2c(C)cc(=O)oc2c1
active: Potency [4] 31.1 µM
inconclusive: Potency [1] 30.9 µM [rising, partial curve] and 30.6 µM [rising, partial curve] | Potency [2] 49.4 µM [fluorescent] and 24.5 µM [fluorescent] | Potency [3] 44 µM [fluorescent, partial curve] and 38.9 µM [fluorescent, partial curve] | Potency [5] 62.2 µM [rising, partial curve] and 21.9 µM [rising, partial curve] | Potency [6] 6.97 µM [fluorescent, full curve, poor fit] and 9.77 µM [fluorescent, full curve, poor fit] | Potency [7] 7.82 µM [fluorescent, partial curve] and 43.6 µM [fluorescent, partial curve] | Potency [8] 27.8 µM [fluorescent, partial curve, poor fit] and 38.9 µM [fluorescent, partial curve] | Potency [9] 0.175 µM [falling, full curve, poor fit] | Potency [10] 31.1 µM [fluorescent, partial curve] and 24.5 µM [fluorescent] | Potency [11] 0.392 µM [rising, full curve, poor fit]

CC(=O)Nc1ccc(C(=O)CCl)cc1
active: Potency [12] 19.3 µM | Potency [13] 3.89 µM | Potency [14] 43.6 µM
inactive and 54.9 µM (active): Potency [15]
inconclusive: Potency [1] 68.6 µM [falling, single point] | Potency [2] 34.7 µM [rising, partial curve] | Potency [4] 9.05 µM | activation [5] 11.3% [at 81.1 µM] | Potency [6] 54.9 µM [single point] | Potency [7] 54.9 µM [single point] | Potency [9] 61.7 µM [falling, single point] | Potency [16] 17.4 µM [rising, partial curve, poor fit] | Potency [11] 61.7 µM [cytotoxic]

Nc1cc([N+](=O)[O-])ccc1O
inconclusive: Potency [1] 27.3 µM [falling, partial curve] and 34.2 µM [falling, partial curve] | activation [2] -13.9% | Potency [15] 0.0219 µM [cytotoxic, full curve, poor fit] | Potency [16] 2.19 µM [rising, full curve, poor fit]
inactive: Potency [3] | Potency [13] | Potency [5] | Potency [6]

CCCCCCCCCCCCN(CCO)CCO
active: Potency [18] 38.7 µM | Potency [14] 48.8 µM | Potency [15] 54.7 µM | Potency [19] 30.8 µM | Potency [11] 43.5 µM
inconclusive: Potency [1] 19.3 µM [falling, partial curve] | Potency [2] 61.4 µM [single point] | Potency [3] 54.7 µM [inhibitor] | Potency [17] 68.3 µM [falling, single point] | Potency [4] 54.7 µM | Potency [5] 61.4 µM [single point] | ratio activity, negative = inhibition [6] -2.72% | Potency [7] 54.7 µM [inhibitor, single point] | Potency [8] 54.7 µM [single point] | Potency [9] 54.7 µM [falling, single point] | Potency [16] 21.8 µM [single point] | Potency [10] 614 nM [rising, partial curve, poor fit]

OCCN1CCN(CC/C=C2/c3ccccc3Sc3ccc(C(F)(F)F)cc32)CC1
inconclusive: Potency [1] 26.6 µM | activation [2] -17.1% | ratio activity, negative = inhibition [3] -0.82% | activity change, negative = cytotoxicity [20] -64.1% [cytotoxic] | Potency [17] 33.5 µM | Potency [5] 23.7 µM [rising, partial curve] | Potency [6] 10.6 µM [rising, partial curve] | Potency [7] 33.5 µM [inhibitor] | activation [16] -21.2% | Potency [10] 26800 nM [fluorescent, single point] | Potency [19] 11.9 µM [cytotoxic, partial curve]
active: Potency [14] 23.7 µM | Potency [15] 26.6 µM | Potency [9] 23.7 µM | Potency [11] 23.9 µM
